This sample is rich in variants without activity.

B1: TPR 5TU (parent)
chain: GGAUCUUCUCGAUCUAACAAAAAAGACAAAUCUGCCACAAAGCUUGAGAGCAUCUUCGGAUGCAGAGGCGGCAGCCUUCGGUGGCGCGAUAGCGCCAACGUUCUCAACUAUGACACGCAAAACGCGUGCUCCGUUGAAUGGAGUUUAUCAUG

In the data set the parent is B1. Kind of data set: polymerase ribozyme fitness, log enrichment relative to wild type (log ratio); higher = more active; in vitro selection for triplet polymerase activity. The method, boiled down: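 To select mutant libraries of each subunit of a heterodimeric triplet polymerase ribozyme, built by PCR and transcribed, each was annealed with a biotinylated primer, partner subunit and triplets, then incubated frozen at −7 °C. Extended constructs were gel-excised, captured on streptavidin beads and amplified by RT-PCR, in one round carried out in triplicate. Illumina sequencing of input and output libraries kept genotypes with ≥10 input reads and ≥1 read per output. Fitness is the base-2 logarithm of genotype enrichment relative to wild-type enrichment, from inverse-variance-weighted replicate averages.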
Turning to GGAUCUUCUCGAUCUAACAAAAAAGACAAAUCUGCCACAAAGCUUGAGACCAUCUUCGGAUGCAGAGGCGGCAGCCUUCGGUGGCGCGGUAGCGCCAAUGUUCUCAACUAUGACACGCAAAGCGCGUGCUCCGUUGAAUGGAGUUUAUCAUG [G50C A89G C99U A122G], the “polymerase ribozyme fitness (log ratio)” value is at most -4.2. In the case of GGAUCUUCUCGAUCUAACAAAAAAGACAAAUCUGCCACAAAGCUUGAGACCAUCUUCGGAUGCAGAGGCGGCAGCCUUCGGUGGCGCGAUAGCGCCAACGUUCUCAACUAUGCCACGCAAAACGCGUGCUCCGUUGAAAGGUGUUUAUCAUG [G50C A113C U139A A142U] it was at most -4.2; in that of GGAUCUUCUCGAUCUAACAAAAAAGACAAAUCUGCCACAAAGCUUGAGAACAUCUUCGGAUGCAGAGGCGGCAGCCUUCGGGGGUGCGAUAGCGCCAACGUUCUCAACUAGGACACGCAAAACGCGUGCUCCGUUGAAUGGAGUUUAUCAUG [G50A U82G C85U U111G], at most -4.2. In the case of GGAUCUUCUCGAUCUAACAAAAAAGACAAAUCUGCCACAAAGCUUGAGACCAUCUUCGGAUGCAGAGGCGGCAGCCUUCGGUGGCGCGAUUGCGCCAACGUUCUCAACUAUGACACGCAAAACGCGUGCUCCGUUGAAUGGAGUUUAUCAUG [G50C A91U] it was at most -4.2; in that of GGAUCUUCUCGAUCUAACAAAAAAGACAAAUCUGCCACAAAGCUUGAGACCGUCUUCGGUUGCAGAGGCGGCAGCCUUCGGUGGCGCGAUAGCGCCAACGUACUCAACUAUGACACGCUAAACGCGUGCUCCGUUGAAUGGAGUUUAUCAUG [G50C A52G A60U U102A A119U], at most -4.2; in that of GGAUCUUCUCGAUCUAACAAAAAAGACAAAUCUGCCACAAAGCUUGAGACCAUCUUUGCAUGCAGAGGCGGCAACCUUCGGUAGCGCGAUAGCGCCAACGUUCUCAACUAUGACACGCAAAACGCGUGCUCCGGUGAAUGGAGUUUAUCAUG [G50C C57U G59C G74A G83A U134G], at most -4.2. The value for GGAUCUUCUCGAUCUAACAAAAAAGACAAAUCUGCCACAAAGCUUGAGACCAUCUUCGGAUGCAGAGGCGGCGGCAUUCGGUGGCGCGAUAGCGCCAACGUUCUCAACUAUGACACGCAAAACGCGUGCUCCGUUGAAUGGAAUUUAUCGUG [G50C A73G C76A G143A A150G] was at most -4.2. For the variant GGAUCUUCUCGAUCUAACAAAAAAGACAAAUCUGCCACAAAGCUUGAGACCCUCUUCGGAUGCAGAGGCGGCAGCCCUAGGUGGCGCGAUAGCGCCAACGGUCUCAACUAUGACUCGCAAAACGCGUGCUCCGUUGAAUGGAGUUUAUCAUG [G50C A52C U77C C79A U101G A115U], the “polymerase ribozyme fitness (log ratio)” value was at most -4.2. On to GGAUCUUCUCGAUCUAACAAAAAAGACAAAUCUGCCACAAAGCUUGAGACUAUCUUCGGAUGCAGAGGCGGCAGCCUUCGGUGGCGCGAUAGCGCCAACGAUCUCAACUAUGACACGCAAAACGCGUGCUCCGUUGAAUGGAGUUUAUCAUG [G50C C51U U101A], for which the “polymerase ribozyme fitness (log ratio)” value was at most -4.2. Take GGAUCUUCUCGAUCUAACAAAAAAGACAAAUCUGCCACAAAGCUUGAGAACAUCUUCGGAUGCAGAGGCGGCAGCCCUCGGUGGCGCGAUAUCGCCAACGUUCUCAACUAUGACACGCAAAACGUGUGCUCCGUUGAAUGGAGUUUAUCAAG [G50A U77C G92U C125U U151A]: the “polymerase ribozyme fitness (log ratio)” value was at most -4.2. In the case of GGAUCUUCUCGAUCUAACAAAAAAGACAAAUCUGCCACAAAGCUUGAGACCAUCUUCGGAUGCAGAGGCGGCAGCCUUCGGUGGCGCGGUAGCGCCAACGUUCUCAACUAUGACACGAAACACGCGUGCUCCGUUGAAUGGAGUUUAUCAUG [G50C A89G C118A A121C] it was at most -4.2; in that of GGAUCUUCUCGAUCUAACAAAAAAGACAAAUCUGCCACAAAGCUUGAGACCAUCUUGGGAUGCAGAGGCGGCAGCCUUCGGUGGCGCGAUAGCGCCAACGUUCUCAACUAUGACACGCAAAACGCGUGCUCCGGUGAAUGGAGUUUAUCAUG [G50C C57G U134G], at most -4.2; in that of GGAUCUUCUCGAUCUAACAAAAAAGACAAAUCUGCCACAAAGCUUGAGACCAUCUUCGGAUGCAGAGGCGGCAGCCUUCGGUGGCGCGAUAGCGCCUACGCUCUGAACUAUGACACGCAAAACGAGUGCUCCGUUGAAUGUAGUUUAUCAUG [G50C A97U U101C C105G C125A G141U], at most -4.2. The value for GGAUCUUCUCGAUCUAACAAAAAAGACAAAUCUGCCACAAAGCUUGAGACCAUCUUCGGAUGCAGAGGCGGCAGCCUUCGGUGGCGCGAUGGCGCCGACGUUCUCAACUGUGACACACAAAACGCGUGCUCCGUUGAAUGGAGUUUAUCAUG [G50C A91G A97G A110G G117A] was at most -4.2; that for GGAUCUUCUCGAUCUAACAAAAAAGACAAAUCUGCCACAAAGCUUGAGACCAUAUUCGGAUGCAGAGGCGGAAGCCUUCGGUGGCGCGCUAGCGCCAUCGUUCUCAACUAUGACACGCAAUACGCGUGCUCCGUUGAAUGGAGUUUAUCAUG [G50C C54A C72A A89C A98U A121U] was at most -4.2.

Take GGAUCUUCUCGAUCUAACAAAAAAGACAAAUCUGCCACAAAGCUUGAGACCAUGUUCGGAUGCAGAGGCGGCAGCCUUCGGUGGAGCGAUAGCGCCCACGCUCUCAACUAUGACACGUAAAACGCGUGCUCCGUUGAAUGGAGUUUAUCAUG [G50C C54G C85A A97C U101C C118U]: the “polymerase ribozyme fitness (log ratio)” value was at most -4.2. In the case of GGAUCUUCUCGAUCUAACAAAAAAGACAAAUCUGCCACAAAGCUUGAGACCAUCUUCGGAUGCUGAGGCGGCAGCCUUCGGUGGCGCGAUAGGGCCAACGUUCUCAACUAGGACAUGCAAAACGCGUGCUCCGUUGAAUGGAGUUUAUCAUG [G50C A64U C93G U111G C116U] it was at most -4.2. Consider GGAUCUUCUCGAUCUAACAAAAAAGACAAAUCUGCCACAAAGCUUGAGACCAUCUUCGGAUGCAGAGGCGGCAGCCUUCGGUGGCGCGAUAGCGCCAGCGUUCUCAACUAUGACACGCAAAACGCGUGCUCCGUUGAAUGGAGUUUAUCAUG [G50C A98G], for which the “polymerase ribozyme fitness (log ratio)” value was -3.37. The value for GGAUCUUCUCGAUCUAACAAAAAAGACAAAUCUGCCACAAAGCUUGAGACGAUCUUCGGAUGCAGAGGCGUCAGCCUUCGGUGGCGCGAUAACGCCAACGUUCUCAACUAUGACACGCAAAACGCGUCCUCCGUUGAAUGGAGUUUAUCAAG [G50C C51G G71U G92A G128C U151A] was at most -4.2.

For the origin of these results see the RNAGym collection of RNA variant scans (doi:10.1073/pnas.2313332121).
